# Screen size: about 370,000 compounds; about 150 (0.041%) were called active. The inconclusive results got no clear call from the source; some entries with a clear call stand among them for comparison. Calls follow the shape of the dose curve; as a rule, active = well fitted inhibition curve with a large enough effect; inconclusive = small, poorly fitted or top-dose-only effect; inactive = flat fitted curve, though single readings scatter. No potency is given beside an inconclusive call; the fits are too rough.
# Biological target: Beta-lactamase (Escherichia coli (strain K12)) (UniProt P00811)
# Experiment: qHTS Inhibitors of AmpC Beta-Lactamase (assay with detergent); also: nearly all actives have a fitted effect of over 25% in size
# Conditions: AmpC hydrolysis of nitrocefin, absorbance 480 nm, 0.01% Triton; series mostly up to 114 µM
# In short: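 20 mM phosphate pH 7.0 + 0.01% (detergent screen) or 0.0001% Triton X-100; 5.3 nM AmpC reagent; cpd preinc 15 min RT; nitrocefin (800 uM stock) to start; A480 q20 s × 4 min; Activity was normalised to no-enzyme and no-compound control wells.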
# Potency is read from the fitted curve at half-maximal effect; tags tell the direction and shape of the fitted curve.
# UniProt P00811, sequence (P00811 whole entry, looked up): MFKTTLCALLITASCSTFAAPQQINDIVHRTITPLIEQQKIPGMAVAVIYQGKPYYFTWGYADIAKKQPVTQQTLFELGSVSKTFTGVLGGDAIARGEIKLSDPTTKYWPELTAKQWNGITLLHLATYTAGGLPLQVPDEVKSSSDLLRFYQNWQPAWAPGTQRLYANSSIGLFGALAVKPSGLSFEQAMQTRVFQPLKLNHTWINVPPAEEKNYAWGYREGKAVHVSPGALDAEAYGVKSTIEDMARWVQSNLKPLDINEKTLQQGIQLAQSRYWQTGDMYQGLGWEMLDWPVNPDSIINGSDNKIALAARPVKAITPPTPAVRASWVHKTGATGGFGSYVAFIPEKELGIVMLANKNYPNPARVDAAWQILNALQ
row,Compound,Potency
1,N#CCSc1ccccc1NC(=O)COC(=O)Cc1c[nH]c2ccccc12,"inconclusive [inhibitor, full curve, poor fit]"
2,CCOc1cc(C(=O)Nc2ccc(S(=O)(=O)Nc3cc(C)on3)cc2)cc(OCC)c1OCC,"inconclusive [inhibitor, partial curve]"
3,Cc1nc(N2CCCCC2)sc1C(=O)c1ccc(Cl)c([N+](=O)[O-])c1,inactive
4,COCCn1c(C)cc(C(=O)CSc2n[nH]c(N)n2)c1C,inactive
5,CN(C)S(=O)(=O)c1cccc(NC(=S)N2CCc3ccccc32)c1,"inconclusive [inhibitor, single point]"
6,Cc1c(C(=O)N(Cc2ccc(F)cc2)C2CCS(=O)(=O)C2)oc2ccccc12 (stereo unspecified),"inconclusive [inhibitor, partial curve, poor fit]"
7,Cn1c(-c2ccc(C=O)s2)nc2ccccc21,"inconclusive [inhibitor, full curve, poor fit]"
8,CCOC(=O)CC(C#N)c1cn(C)c2ccccc12 (stereo unspecified),"inconclusive [inhibitor, full curve, poor fit]"
9,CCOc1ccc(C(C(=O)NCC2CCCO2)N(CCc2cccc(C)c2)C(=O)c2snc(C(N)=O)c2N)cc1 (stereo unspecified),inactive
10,O=C(Nc1ccc(Cl)c(S(=O)(=O)N2CCCCC2)c1)c1cnccn1,"inconclusive [inhibitor, full curve, poor fit]"
11,COc1cc(C(C)=O)ccc1OCC(=O)Nc1ccccc1N1CCCC1,inactive
12,CCCc1ccc(-c2cc(NC(=O)CSc3n[nH]c(N)n3)n(-c3ccccc3)n2)cc1,"inconclusive [inhibitor, full curve]"
13,CN(C)C(=O)c1cc(C(=O)c2ccc(C(F)(F)F)cc2)c[nH]1,inactive
14,O=C(CSc1nc2ccccc2c(=O)[nH]1)c1cccs1,inactive
15,CN(C)S(=O)(=O)c1cccc(CSc2cccc[n+]2[O-])c1,"inconclusive [inhibitor, full curve, poor fit]"
16,CCOC(=O)c1oc2ccc(S(=O)(=O)Nc3ccc4c(c3)n(C)c(=O)n4C)cc2c1C,"inconclusive [inhibitor, partial curve]"
17,O=C(Nc1ccccc1Cl)C1CCN(c2nc3ccccc3[nH]2)CC1,inactive
18,Cc1cc(Cl)ccc1Nc1ncnc2onc(C)c12,inactive
19,CC1(C(=O)NC2CCCC2)CCC(=O)N1Cc1cccs1 (stereo unspecified),"inconclusive [inhibitor, single point]"
20,Cc1cc(C(=O)COC(=O)c2ccc(O)cc2O)c(C)n1-c1ccccc1,"inconclusive [inhibitor, full curve]"
21,CCOc1ccc(/C=C/C(=O)c2ccccc2)cc1,inactive
22,Cc1ccc2[nH]c3ccccc3c(=O)c2c1,"inconclusive [inhibitor, partial curve, poor fit]"
23,CCOC(=O)c1c(-c2ccc(C)o2)csc1NC(=O)COC(=O)c1ccc(NC(N)=O)cc1,inactive

row,Compound,Potency
1,C/C(=N/Nc1ncc(Br)cn1)c1ccc([N+](=O)[O-])cc1,"inconclusive [inhibitor, full curve, poor fit]"
2,COc1ccc(CN=C2NN=C(c3cccc(OC)c3)CS2)cc1,inactive
3,COc1ccc(NC(=O)CSc2c3c(nc4ccccc24)CCC3)c(OC)c1,"inconclusive [inhibitor, full curve, poor fit]"
4,CCOC(=O)c1c(C)n(C)c2ccc(OCC(O)CN(CC)CC)cc12 (stereo unspecified),"inconclusive [inhibitor, full curve, poor fit]"
5,CCOc1ccc2cc(C#N)c(SCC(=O)NC(C)CC)nc2c1 (stereo unspecified),inactive
6,CCOC(=O)c1ccc(S(=O)(=O)N2CCC(C(=O)Nc3nnc(C)o3)CC2)cc1,"inconclusive [inhibitor, full curve, poor fit]"
7,CCC(=O)NC(=S)NNC(=O)c1ccc(O)cc1,inactive
8,Cc1cc2c(cc1C)CSC(c1ccc3ccccc3c1O)SC2,inactive
9,CNC1=CC(=O)CC(c2ccccc2)C1 (stereo unspecified),"inconclusive [inhibitor, full curve, poor fit]"
10,COc1ccc(S(=O)(=O)N2CCC(C(=O)NCC3CCCO3)CC2)cc1 (stereo unspecified),inactive
11,CCOC(=O)CSc1nc2c(c(=O)[nH]c(=O)n2C)n1CCCc1ccccc1,"inconclusive [inhibitor, full curve]"
12,Cc1c(C(=O)N2CCCCCC2)nnn1-c1nonc1N,"inconclusive [inhibitor, full curve, poor fit]"
13,Cc1no[n+]([O-])c1COc1ccc(/C=C2\NC(=S)NC2=O)cc1,"inconclusive [inhibitor, full curve, poor fit]"
14,O=C(O)CN=C(NS(=O)(=O)c1ccccc1)c1ccccc1,"inconclusive [inhibitor, partial curve, poor fit]"
15,CC1(C)Cc2c(C#N)c(N3CCN(C(=O)c4ccco4)CC3)nc(Cc3ccccc3)c2CO1,"inconclusive [inhibitor, partial curve, poor fit]"
16,c1ccc(N2CC3CCc4ccccc4C3=N2)cc1 (stereo unspecified),inactive
17,CC1=C(C(=O)Nc2ccc(C)cc2C)C(c2cc(Br)ccc2F)n2ncc(C(=O)Nc3ccc(C)cc3)c2N1 (stereo unspecified),inactive
18,c1ccc(CCc2nn3c(Cn4nnc5ccccc54)nnc3s2)cc1,"inconclusive [inhibitor, single point]"
19,O=C(Nc1cc(Cl)ccc1Cl)C1CCCO1 (stereo unspecified),"inconclusive [inhibitor, full curve, poor fit]"
20,CC1(C)C(=O)Nc2ccccc2N1C(=O)Cn1ncc(Cl)c(Cl)c1=O,inactive
21,CCn1c(SCC(=O)c2cc(OC)ccc2OC)nnc1C1CC1,"inconclusive [inhibitor, partial curve, poor fit]"
22,COCCN(C(=S)Nc1ccc(OC)cc1)C1CCN(C(C)C)CC1,inactive
23,CC(=C\c1ccco1)/C=C(\C#N)C(=O)NCCc1c[nH]c2ccccc12,inactive
